Assay results as given in paper PMC12820563, “FoxP3 forms a head-to-head dimer in vivo and stabilizes its multimerization on adjacent microsatellites”.
This is one part of the list.

The sequences below were run against T1, MBP-FoxP1dN (Mus musculus, UniProt P58462 326-579) (assay: PD-seq (MBP pull-down with sequencing); 20 mM Tris-HCl pH 7.5, 100 mM NaCl, 1.5 mM MgCl2, 0.4 uM protein, 0.1 uM dsDNA library, 30 min, room temperature, amylose pull-down; high values mean tight binding). Settings: protein: recombinant; tags: His6-MBP; chain copies: 2; dsDNA, one strand shown.
T1 sequence: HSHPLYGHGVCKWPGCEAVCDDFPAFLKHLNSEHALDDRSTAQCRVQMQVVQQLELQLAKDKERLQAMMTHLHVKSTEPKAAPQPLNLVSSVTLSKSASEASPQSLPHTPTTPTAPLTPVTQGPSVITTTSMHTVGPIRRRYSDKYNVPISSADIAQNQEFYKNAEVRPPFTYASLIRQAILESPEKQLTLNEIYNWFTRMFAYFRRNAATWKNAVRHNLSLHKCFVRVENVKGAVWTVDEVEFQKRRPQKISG
Summary of the method: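 Mouse FoxP3 or FoxP1 fragment lacking the N-terminus, His6-MBP-tagged and expressed in E. coli, was incubated at 0.4 µM with 0.1 µM Klenow-filled degenerate double-stranded DNA library for 30 min at room temperature in Tris pH 7.5 buffer with NaCl and MgCl2. Complexes captured on amylose resin were washed three times and their DNA sequenced on Illumina. Binding is reads-per-million enrichment of pull-down over input, replicates pooled.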
With “GATGATTGTTCTCCCAGCTGATGAATTTAAGCGATCGAGTAAACAAATTTTCCTAATCTTTCTGTTCAAGCGCCATCTAC” the binding signal was 0.889 RPM ratio (pull-down/input). “GATGATTGTTCTCCCAGCTGATGAATTACTGCGTTCGAGTAAACAAATTTTCCTAATCTTTCTGTTCAAGCGCCATCTAC” was tested, and the binding signal was 1.13 RPM ratio (pull-down/input). “GATGATTGTTCTCCCAGCTGATGAATTTGATCGCTCGAGTAAACAAATTTTCCTAATCTTTCTGTTCAAGCGCCATCTAC” was tested, and the binding signal was 0.799 RPM ratio (pull-down/input). “GATGATTGTTCTCCCAGCTGATGAATTAGTGGGGTCGAGTAAACAAATTTTCCTAATCTTTCTGTTCAAGCGCCATCTAC” was tested, and the binding signal was 0.915 RPM ratio (pull-down/input). For “GATGATTGTTCTCCCAGCTGATGAATTAGTAACCTCGAGTAAACAAATTTTCCTAATCTTTCTGTTCAAGCGCCATCTAC”, the binding signal was 1.03 RPM ratio (pull-down/input). For “GATGATTGTTCTCCCAGCTGATGAATTTCTTCAGTCGAGTAAACAAATTTTCCTAATCTTTCTGTTCAAGCGCCATCTAC”, the binding signal was 0.88 RPM ratio (pull-down/input). With “GATGATTGTTCTCCCAGCTGATGAATTACAAAGATCGAGTAAACAAATTTTCCTAATCTTTCTGTTCAAGCGCCATCTAC” the binding signal was 1.2 RPM ratio (pull-down/input). With “GATGATTGTTCTCCCAGCTGATGAATTTAAAAACTCGAGTAAACAAATTTTCCTAATCTTTCTGTTCAAGCGCCATCTAC” the binding signal was 0.881 RPM ratio (pull-down/input). For “GATGATTGTTCTCCCAGCTGATGAATTCATGAGATCGAGTAAACAAATTTTCCTAATCTTTCTGTTCAAGCGCCATCTAC”, the binding signal was 0.859 RPM ratio (pull-down/input). For “GATGATTGTTCTCCCAGCTGATGAATTTCTCTGCTCGAGTAAACAAATTTTCCTAATCTTTCTGTTCAAGCGCCATCTAC”, the binding signal was 0.812 RPM ratio (pull-down/input). “GATGATTGTTCTCCCAGCTGATGAATTTCTCGGTTCGAGTAAACAAATTTTCCTAATCTTTCTGTTCAAGCGCCATCTAC” was tested, and the binding signal was 0.889 RPM ratio (pull-down/input). For “GATGATTGTTCTCCCAGCTGATGAATTTTTGTTCTCGAGTAAACAAATTTTCCTAATCTTTCTGTTCAAGCGCCATCTAC”, the binding signal was 0.963 RPM ratio (pull-down/input). With “GATGATTGTTCTCCCAGCTGATGAATTCAGAATATCGAGTAAACAAATTTTCCTAATCTTTCTGTTCAAGCGCCATCTAC” the binding signal was 0.933 RPM ratio (pull-down/input). For “GATGATTGTTCTCCCAGCTGATGAATTGTAAGCCTCGAGTAAACAAATTTTCCTAATCTTTCTGTTCAAGCGCCATCTAC”, the binding signal was 0.983 RPM ratio (pull-down/input). For “GATGATTGTTCTCCCAGCTGATGAATTACTATCTTCGAGTAAACAAATTTTCCTAATCTTTCTGTTCAAGCGCCATCTAC”, the binding signal was 1.12 RPM ratio (pull-down/input). In the case of “GATGATTGTTCTCCCAGCTGATGAATTGTCGGCCTCGAGTAAACAAATTTTCCTAATCTTTCTGTTCAAGCGCCATCTAC”, the binding signal is reported as 0.864 RPM ratio (pull-down/input). For “GATGATTGTTCTCCCAGCTGATGAATTTCTATACTCGAGTAAACAAATTTTCCTAATCTTTCTGTTCAAGCGCCATCTAC”, the binding signal was 0.903 RPM ratio (pull-down/input). For “GATGATTGTTCTCCCAGCTGATGAATTTAGGATCTCGAGTAAACAAATTTTCCTAATCTTTCTGTTCAAGCGCCATCTAC”, the binding signal was 0.911 RPM ratio (pull-down/input). For “GATGATTGTTCTCCCAGCTGATGAATTCACTTCCTCGAGTAAACAAATTTTCCTAATCTTTCTGTTCAAGCGCCATCTAC”, the binding signal was 0.808 RPM ratio (pull-down/input). In the case of “GATGATTGTTCTCCCAGCTGATGAATTACGGGGGTCGAGTAAACAAATTTTCCTAATCTTTCTGTTCAAGCGCCATCTAC”, the binding signal is reported as 0.863 RPM ratio (pull-down/input). In the case of “GATGATTGTTCTCCCAGCTGATGAATTGAATAGATCGAGTAAACAAATTTTCCTAATCTTTCTGTTCAAGCGCCATCTAC”, the binding signal is reported as 0.905 RPM ratio (pull-down/input). In the case of “GATGATTGTTCTCCCAGCTGATGAATTAATCCTATCGAGTAAACAAATTTTCCTAATCTTTCTGTTCAAGCGCCATCTAC”, the binding signal is reported as 0.93 RPM ratio (pull-down/input). With “GATGATTGTTCTCCCAGCTGATGAATTGCCTAATTCGAGTAAACAAATTTTCCTAATCTTTCTGTTCAAGCGCCATCTAC” the binding signal was 1.1 RPM ratio (pull-down/input). In the case of “GATGATTGTTCTCCCAGCTGATGAATTGTTTACGTCGAGTAAACAAATTTTCCTAATCTTTCTGTTCAAGCGCCATCTAC”, the binding signal is reported as 2.79 RPM ratio (pull-down/input). In the case of “GATGATTGTTCTCCCAGCTGATGAATTTGGATTTTCGAGTAAACAAATTTTCCTAATCTTTCTGTTCAAGCGCCATCTAC”, the binding signal is reported as 1.02 RPM ratio (pull-down/input). In the case of “GATGATTGTTCTCCCAGCTGATGAATTTAATTCCTCGAGTAAACAAATTTTCCTAATCTTTCTGTTCAAGCGCCATCTAC”, the binding signal is reported as 0.817 RPM ratio (pull-down/input). For “GATGATTGTTCTCCCAGCTGATGAATTCCCATGGTCGAGTAAACAAATTTTCCTAATCTTTCTGTTCAAGCGCCATCTAC”, the binding signal was 0.802 RPM ratio (pull-down/input). “GATGATTGTTCTCCCAGCTGATGAATTACGCGGCTCGAGTAAACAAATTTTCCTAATCTTTCTGTTCAAGCGCCATCTAC” was tested, and the binding signal was 0.852 RPM ratio (pull-down/input). For “GATGATTGTTCTCCCAGCTGATGAATTATATGTGTCGAGTAAACAAATTTTCCTAATCTTTCTGTTCAAGCGCCATCTAC”, the binding signal was 1.21 RPM ratio (pull-down/input). “GATGATTGTTCTCCCAGCTGATGAATTTGTATGATCGAGTAAACAAATTTTCCTAATCTTTCTGTTCAAGCGCCATCTAC” was tested, and the binding signal was 1.21 RPM ratio (pull-down/input). “GATGATTGTTCTCCCAGCTGATGAATTATACAACTCGAGTAAACAAATTTTCCTAATCTTTCTGTTCAAGCGCCATCTAC” was tested, and the binding signal was 1.33 RPM ratio (pull-down/input). “GATGATTGTTCTCCCAGCTGATGAATTACACTTATCGAGTAAACAAATTTTCCTAATCTTTCTGTTCAAGCGCCATCTAC” was tested, and the binding signal was 1.21 RPM ratio (pull-down/input).
